Test results reported in publication PMC7819943, “Rice protein-binding microarrays: a tool to detect cis-acting elements near promoter regions in rice”.
Some of the results follow.

The sequences below were run against T1, OsWOX13 (Oryza sativa, UniProt Q5QMM3 1-267) (assay: protein-binding microarray (RPBM); PBS, 2% BSA, 51.3 ng/ul salmon testes DNA, 50 uM zinc acetate, 200 nM TF, 25 C, 1 h; high values mean tight binding). Conditions: protein: recombinant; tags: N-terminal polyhistidine and DsRed monomer fusion (pET32a); label: CyDye5-dUTP incorporated in the synthesized complementary strand; 3' TTTTT single-stranded linker to array surface; dsDNA, one strand shown.
T1 sequence: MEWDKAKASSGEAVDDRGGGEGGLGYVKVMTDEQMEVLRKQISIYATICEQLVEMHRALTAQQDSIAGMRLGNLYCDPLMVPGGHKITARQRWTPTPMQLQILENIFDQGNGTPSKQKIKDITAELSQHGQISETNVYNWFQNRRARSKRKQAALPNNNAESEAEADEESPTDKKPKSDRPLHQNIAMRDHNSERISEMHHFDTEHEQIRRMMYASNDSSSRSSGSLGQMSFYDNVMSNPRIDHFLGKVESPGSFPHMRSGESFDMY
Summary of the method: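 The binding signal is fluorescence intensity per array feature (arbitrary units). Readings came from an Axon 4000B scanner after a washed, 2% BSA-blocked, double-stranded custom Agilent array had been incubated for 1 h at 25 °C with 200 nM protein and 50 µM zinc acetate. The protein was a Ni–NTA-purified transcription factor fused N-terminally to polyhistidine and DsRed, expressed in E. coli BL21-CodonPlus.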

Row | Sequence | binding signal
1 | TATAAACTAGTTAATTGTAGATTTATAGAATTTAACTACTCGGAGTCACCTAGTGCAG | 11300 fluorescence intensity (a.u.)
2 | GGTAATGATGTGGCGAATGATGACATCACACAAAATGATACGGAGTCACCTAGTGCAG | 5120 fluorescence intensity (a.u.)
3 | CTCCTTACAAATTTTGAAGATAATTTCGTAACACTTGGGGCGGAGTCACCTAGTGCAG | 7610 fluorescence intensity (a.u.)
4 | ATGCTACAGTAGTGATTGAGAGTTTGTAATCAAATCAATTCGGAGTCACCTAGTGCAG | 18100 fluorescence intensity (a.u.)
5 | CGTTGATTATTGCGATCGAAACCGTCTCATATAATTTTGCCGGAGTCACCTAGTGCAG | 52500 fluorescence intensity (a.u.)
6 | CTTGTATGATTGTATCCCCTGACATGGCACCACACGCAGTCGGAGTCACCTAGTGCAG | 9110 fluorescence intensity (a.u.)
7 | TTATTAGTACTAATCAAGAAACAAACTAAATGGTACCCCGCGGAGTCACCTAGTGCAG | 7120 fluorescence intensity (a.u.)
8 | AAAGATTGAGGGGAAGGGTGATAGGTGGGCCCCACGTGGGCGGAGTCACCTAGTGCAG | 5510 fluorescence intensity (a.u.)
9 | AAACTTTTACACCTGATGATAGATTTGTAATAGATGTTTGCGGAGTCACCTAGTGCAG | 3730 fluorescence intensity (a.u.)
10 | CTCGCTGATTGGAGTTGCGCTTAGCCGTCGTAATAGTCATCGGAGTCACCTAGTGCAG | 40900 fluorescence intensity (a.u.)
11 | ACTGTGAAACATCTAATTGAGCAGGTAAACAGCTCTATCACGGAGTCACCTAGTGCAG | 5470 fluorescence intensity (a.u.)
12 | ATAGCCAATCATGTACTTCCTGTTTCGGCGCAAGAGGTCGCGGAGTCACCTAGTGCAG | 13400 fluorescence intensity (a.u.)
13 | TTTTAAATGGGCTAGAATAGTAATTGCTACCATTTGAGGTCGGAGTCACCTAGTGCAG | 5540 fluorescence intensity (a.u.)
14 | GGTTTAACTGAACATGACAGGTCGTGTACAAATTCAAGATCGGAGTCACCTAGTGCAG | 17100 fluorescence intensity (a.u.)
15 | CCTAATGGCCATAATTTAACAATGTGGTGCTACAGTAAACCGGAGTCACCTAGTGCAG | 14900 fluorescence intensity (a.u.)
16 | ATTTTATCTATTTATCTATCTATTTATGCATGGACAAGGGCGGAGTCACCTAGTGCAG | 5520 fluorescence intensity (a.u.)
17 | ACTCCTCAAACAGGTTGATTGGTCATTTGCACATTAAGGACGGAGTCACCTAGTGCAG | 28900 fluorescence intensity (a.u.)
18 | ACTCTGTTATCTCACATCTGTTAATTCTCCTGTATGGTATCGGAGTCACCTAGTGCAG | 3410 fluorescence intensity (a.u.)
19 | TACTTCAAAATACTGATTACATCAATCAGAATTGCCACTGCGGAGTCACCTAGTGCAG | 8020 fluorescence intensity (a.u.)
20 | CTAAGCAAATCATAATAATCAGAACATTTTCTATAATCATCGGAGTCACCTAGTGCAG | 3830 fluorescence intensity (a.u.)
21 | GATAACCAATTGTTTAATTATTCTTAGTCCCTTATCTTATCGGAGTCACCTAGTGCAG | 8430 fluorescence intensity (a.u.)
22 | GCAATTCCAATCTTATTGGAATTAATTGTCAACCCATCCTCGGAGTCACCTAGTGCAG | 15400 fluorescence intensity (a.u.)
23 | TGAAGCTGATGTTGATTAAGATGTGATGTGTATACGTGAACGGAGTCACCTAGTGCAG | 3850 fluorescence intensity (a.u.)
